Among the data in the RNAGym collection of RNA variant scans (doi:10.7554/elife.90254) are self-cleavage values, retold here.

The source gives no read counts; variants with many changes may rest on few reads.

B1: OR4K15 (parent)
chain: GUUAACGGUCAUAGGCCAUGGAAACUAGGAGCACCAUUUCGCUGCCAGUGAAGAAAUGAACAAAGAAAAUCUGGGCCAGGCAGGCAUCAAAAGAAAUAGUCUUGCGCUCAACCAGAAAGUCUGUAAUCAUUUUAAGGGUA

Variants of B1 are the subject of this data set. Nature of the data set: self-cleavage, relative activity (ratio to wild type); higher = more cleavage; in vitro, sequencing; the parent is a self-cleaving ribozyme.
For A22C G106A U108C, the self-cleavage was 0.02.
Next, A22U U37C A52G: 0.65; A22G C35A U124C: 0.89.
To U19C U122A A135G belongs 0.08.
To A22G A66G A69G belongs 0.45.
Turning to G20U A27G U43C C105G, the self-cleavage was 0.
On to G21A A86U U100C, for which the self-cleavage was 2.86.
Next, A22G U39C U43C A62U: 0.74; A22U A52G A56G: 1.57; A22G A30G C81A: 0.
Regarding A22G A33G A62G A90U A98U U122C, the self-cleavage amounted to 1.94.
Regarding A22G A78G A117U A140U, the self-cleavage amounted to 0.14.
For the variant A22G A69G U131A, the self-cleavage stood at 1.
A22G A52G A90G: the self-cleavage worked out at 1.12.
To A22G A23G A51G belongs 0.81; to A22G A33G U43C U70C A82U U87C, 0.14.
On to A22G U97C G106A A116G, for which the self-cleavage came to 0.
To A22U A55G U57A A59U U72A U87C belongs 0.23.
Consider A22G A24G A95G U103C A114U, for which the self-cleavage is 0.
For the variant A22G A78U A96G, the self-cleavage turned out to be 0.13.
Next, A22G U43G A60G U108C: 0.02.
To A22G A23G U49C A89U U131C belongs 1.62; to G21U A60G A91G, 0.8; to A22G A24G A63G, 0.49.
To A22U A95G A98C belongs 2.53; to A22G U43A A89G A118U, 0.63; to A22G A66G U97A A111G U120A, 0.04.
Regarding A23G A24C A59G A82U U108C U122G, the self-cleavage was found to be 0.01.
To A22U A33U A63G A95G A96G belongs 1.58.
Next, A22G A94G U130C U131C: 1.43; A22G U39C A62C A117G: 1.57; A22G A125C U127C: 0.58.
In the case of U19G A23G A33G, the self-cleavage was determined as 0.95.
For the variant A22G A47G U139C, the self-cleavage stood at 0.91.
Next, A22G A67G A86U A94G: 1.97; A22U A47U A86G A94G A111G: 0.17; A22G A64C A78C U122A: 0.37.
With U19G A66G U102A, the self-cleavage came to 1.47.
For A22U U43C U120A, the self-cleavage stood at 1.32.
Regarding A22G U49C A68G U131C, the self-cleavage turned out to be 0.83.
Regarding G21U A59G A69G A94G A96G, the self-cleavage was determined as 1.69.
Take G20A U49C A56G: the self-cleavage worked out at 0.61.
On to U19G A55G A62G U127C, for which the self-cleavage was 0.75.
Next, G20A A24G A59G A78U A91G A117G: 0.05; A22G U39C A114C U120C A126G: 0.01; U19G U37G U70C G83U A94U U131C: 0.19.
For the variant A22G U26C A33G, the self-cleavage worked out at 1.24.
As for A22U A24U U103C A125G, the self-cleavage was 0.28.
Regarding A22G A23G U87C, the self-cleavage came out at 0.28.
Next, A22G A86G U108C: 0.02; A22G A92G U131C: 1.91; A23C A54U U122C: 0.88.
To A22U A54G U70C A118G belongs 0.28; to A22U A51U A96G A110G A135G, 0.17; to A22G G74U A92G U102A A134G, 0.04.
To A22G A51U U102C belongs 1.29; to A22G A30U U139C, 0.58.
For the variant A22G A54G A69U A86U, the self-cleavage turned out to be 1.89.
With G20U A23G U37C U49C A59G A66U U132A, the self-cleavage is 0.41.
To G21U U43C A51U A91G A94G C113U belongs 0.02; to A22G A69G A78G, 0.28; to A22U U37C A68G U97A, 1.78.
Next, A22G A23U A54G A125G: 0.49.
Take A22G A59G A95G: the self-cleavage amounted to 1.02.
To A22G A129G U139A belongs 0.99; to A22G A52G A98G, 0.22; to A22G A94G U100C, 1.64.
Next, A22G A27U G84A U120C A135G: 1.38; A22G U97C U108C U122C: 0.01; A22G C113U U132C: 0.04.
To G20U C45U U49A belongs 1.59; to A22G A23G A60U U132C, 2.04.
In the case of A22C A56G A66G, the self-cleavage came to 1.11.
On to G21A A51G C105U A110U, for which the self-cleavage came to 0.3.
Regarding A22U A59G A90G A135U, the self-cleavage stood at 0.94.
With U19C U43C A60G G106A, the self-cleavage is 0.03.
Next, A22G A95U U131C: 0.16.
As for A22G U37C A125G, the self-cleavage worked out at 0.64.
Next, A22G U57A A118G: 1.12; A22G U39A A52G A66G A96G U120C C121U A135U: 2.13.
Next, A22G A90U U102C A111G: 0.01.
Next, A22G A67G G83A A95G: 0.37; G20A A27G A60U A64G U133A: 1.02; A22G A63G A69G U130C: 1.89.
On to A22U U87C A91U U102A U103A, for which the self-cleavage stood at 0.09.
In the case of A22G U39C A52G U87C, the self-cleavage turned out to be 1.16.
For the variant A22G A69U G79U A95G, the self-cleavage was 0.02.
Regarding A22G A54G U57C, the self-cleavage came to 0.92.
Take A22G U37C U139C: the self-cleavage came out at 1.59.
As for U19G A24G A54G, the self-cleavage amounted to 0.85.
On to G21A U39C A56G U87G, for which the self-cleavage was 0.59.
Consider A22G A33G A140G, for which the self-cleavage worked out at 1.31.
Next, G21A A62U A95G U108C: 0.01.
Next, A22G U38C U49C G79U: 0.12; A23C A63G A68C: 2.18.
To A22G U131C U133C belongs 0.93.
Take G21A A47G A125G: the self-cleavage is 0.68.
Consider A22G A52G A60G G106A, for which the self-cleavage was 0.
To G20U A24G A33G A60G A98U belongs 0.74; to A22G A110G U131C, 0.16.
Take A22G A33G U87C A96G A117G: the self-cleavage came out at 1.52.
Next, U19C U70C A95G A111G: 0.01; A22G A95G U108C: 0.01; A22G A24G A62G A82G A86G U87A A94G: 0.
As to A22G A98U U132C, the self-cleavage was 1.1.
To A22U U37C A47G A64G U131C belongs 0.47; to G21C A22U A54G, 1.72; to U19C U49A G80A A91U U120C, 0.1.
To A22G A62G U70C U87C belongs 0.33; to A22G A23G G41U A117G, 1.31.
As to A22G A47G A62G, the self-cleavage came to 1.13.
With G21U U38C A94G, the self-cleavage worked out at 1.01.
To A22G A55G A86G U103C U122C A129G belongs 0.28.
To G20U A33G C40A A126G belongs 1.33; to A22G A59G A63G A117G, 1.81; to A22G U37C A96G, 1.01.
With A22G A56G U72G, the self-cleavage was found to be 0.27.
Take U19C U72C U100G: the self-cleavage was found to be 0.28.
In the case of A22G A30G U70C, the self-cleavage is 1.19.
To A22U A55G A64G U103A belongs 0.74.
To A22G A60G U120C U130A belongs 1.1.
Next, A23C U57C A126G: 1.1; A22G A54G C105U: 0.07.
For the variant A22G A59G A63G A125U, the self-cleavage worked out at 1.31.
As to A22G A59U U127C, the self-cleavage was determined as 0.71.
Next, U19C U57C A69G A91G G138U: 0.52.
To A22G U57A A69G belongs 0.82.
To A22U U39C A89G U127G belongs 0; to A22G A36U A54G A68G A90U A125U, 1.78; to A22G A47G A68G A91G U103C A118G U131A, 0.03.
For the variant A22G U120A A126G, the self-cleavage is 0.93.
Regarding A22G A52U A63G U87C A94G, the self-cleavage was 0.82.
To A22G U39C A60G U133C belongs 1.12; to A22G A78U A86G U87A, 0.28; to A22G U26C G28C A60G U132C, 0.87.
As to G20A G106U A111G, the self-cleavage amounted to 0.
Next, A22G A56G U57C U122C: 0.84; A22G G93U U108A: 0.07; A22G A36C U122C: 1.39.
To A22G U43C U57G belongs 0.86.
Turning to U19G A52G U57C A117G, the self-cleavage amounted to 1.47.
To G20U G41A A64G U120C belongs 1.22; to A23C U37C A67G U120A G138A, 1.2.
Turning to A22G U39A U43C, the self-cleavage was found to be 1.2.
Next, A22G A60G A94U U132C: 1.1; A22G U37C A110U U130C A134G: 0.44; A23C U39A A51U: 1.33.
Next, A22G U49A A66U A98U: 1.09; A22U C45U G115U: 0.35; A22G A51G U87C A111U: 0.19.
To A22G U39A A114U belongs 0.09.
Consider A22G A60G U108C C113U A114G A125U A126G, for which the self-cleavage is 0.
To A22G A55G A59U A82G belongs 0.31; to A22G U49C A95G G138C, 1.42.
Take A22G A24G U102C: the self-cleavage is 1.91.
To A22G U38C A56G A90G A110G belongs 0.08.
For the variant A22G C45U A66G, the self-cleavage stood at 0.93.
To A22G A52C U120C belongs 0.4; to U19G A56G U87C, 1.25.
Turning to A22G A67G U87G U131C, the self-cleavage stood at 0.27.
As to A22G A30G A52G, the self-cleavage is 1.2.
With U19G A66G A135G, the self-cleavage was determined as 1.6.
On to A22G A51U A118G, for which the self-cleavage came to 0.98.
To A22U A47G U57C A140U belongs 0.82.
For A22U A55G A66G A78C A125G, the self-cleavage is 0.05.
To A22G A24U U37C belongs 1.5; to G20C A30C A51G A118G U124A, 0.67.
